In PubChem BioAssay AID1458 (National Center for Advancing Translational Sciences (NCATS), 2008):
In all, about 210,000 compounds went through this assay and about 5,900 (2.8%) were called active. Inconclusive results, whose numbers are uncertain, are shown with a selection of clear calls. Calls come from the whole dose curve; as a rule, active = well fitted activation curve with a large enough effect; inconclusive = small, poorly fitted or top-dose-only effect; inactive = no such curve, though single readings can be large or run the other way. Where the call is inconclusive, the potency comes from a doubtful curve fit.

assay: qHTS Assay for Enhancers of SMN2 Splice Variant Expression; conditions: HEK293 SMN2-luciferase splicing reporter, luminescence, 30-36 h; activity change, positive = activation: at 46.1 µM (top of the series); note: nearly all actives have a fitted effect of over 55% in size; for activity change, positive = activation: % of control where 0% means no effect
How it was run: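 qHTS luciferase splicing reporter: luminescence rises when SMN2 exon 7 is included in transfected HEK293 cells. Compound exposure lasted 30-36 h at 37C, with 4.5 mM final sodium butyrate as control, followed by a ONE-Glo read.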
Potency is the fitted concentration of half-maximal effect; tags give direction and shape of the fitted curve.

Row | Compound | Potency | activity change, positive = activation
1 | CCOC(=O)C1CCCCN1C(=O)CCc1c(C)nc2cc(-c3ccccc3)nn2c1C (configuration not stated) | inactive | 
2 | O=C(Nc1ccc(Oc2ccccc2)cc1)C1CCN(c2c3c(nc4ncnn24)CCC3)CC1 | inactive | 
3 | Cc1noc(C(=O)Nc2ccc3c(c2)OCO3)c1Cl | inconclusive: 22.4 µM [activator, single point] | 
4 | O=C(O)CCn1[nH]c(=O)ccc1=O | inconclusive: 35.5 µM [activator, single point] | 
5 | CC1CCCN(C(=O)CN2CCN(C(=O)c3ccco3)CC2)C1 (configuration not stated) | inconclusive: 4.47 µM [activator, single point] | 
6 | O=C(CSc1nnc(-c2ccco2)o1)N1c2ccccc2CCc2ccccc21 | inactive | 
7 | Cc1cc(C(F)(F)F)n(-c2nc(C(=O)NN)cs2)n1 | inactive | 
8 | CCOc1cccc(C(=O)Nc2cccc(C(C)=O)c2)c1 | inconclusive: 35.5 µM [activator, single point] | 
9 | CCCCOc1ccc(C(=O)Nn2c(-c3cccs3)nc3ccccc3c2=O)cc1 | inconclusive: 0.631 µM [activator, single point] | 
10 | c1cc(-c2noc(CCC3CCCC3)n2)ccn1 | inconclusive: 2.51 µM [activator, full curve, poor fit] | 
11 | Cc1csc2ncc(C(=O)NCCc3ccccc3)c(=O)n12 | inconclusive: 12.6 µM [activator, partial curve, poor fit] | 
12 | CC1CCN(S(=O)(=O)c2ccc3[nH]cc(C(=O)NCCN4CCOCC4)c(=O)c3c2)CC1 | inconclusive: 35.5 µM [activator, single point] | 
13 | CSc1nnc(-c2ccco2)c(-c2ccco2)n1 | inconclusive: 35.5 µM [activator, partial curve, poor fit] | 
14 | O=C(Nc1cc(N2CCOCC2)ncn1)NC1(C(F)(F)F)Oc2ccccc2O1 | inconclusive: 35.5 µM [activator, single point] | 
15 | Cc1cnc(C(=O)Nc2nnc(C3CC3)s2)cn1 | inactive | 
16 | Cc1nc2ccc(C(=O)c3ccccc3)cc2[nH]1 | inconclusive: 35.5 µM [activator, single point] | 
17 | O=C(c1ccc2c(Cl)c3c(nc2c1)CCCC3)N1CCN(c2ccc(Cl)cc2)CC1 | inconclusive: 2.82 µM [activator, single point] | 
18 | CCOC(=O)N/N=C/c1c(F)cccc1F | inconclusive: 22.4 µM [activator, single point] | 
19 | COc1ccc(CNC(=O)NC2CCCCC2)cc1 | inconclusive: 15.8 µM [activator, single point] | 
20 | CCCCCCSC1=C(C#N)C(c2ccccc2)CC(=O)N1 (configuration not stated) | inconclusive: 1.41 µM [activator, partial curve, poor fit] | 
21 | CC1CCN(C(=O)Cn2c(=O)n(CCc3ccccc3)c(=O)c3ccccc32)CC1 | inconclusive: 3.98 µM [activator, full curve, poor fit] | 
22 | O=C(NCCC1=CCCCC1)NC1CCCCC1 | active: 7.08 µM | 
23 | Cc1ccc(C(=O)N/N=C\c2sccc2C)cn1 | inconclusive: 7.08 µM [activator, partial curve] | 
24 | COc1cccc(CSc2nc3ccncc3n2CC(=O)Nc2ccc(OC)c(OC)c2OC)c1 | inconclusive: 10 µM [activator, partial curve] | 

Row | Compound | Potency | activity change, positive = activation
25 | CCOc1ccc(CN2C(=O)CCC2(C)C(=O)NCc2cccnc2)cc1 (configuration not stated) | inconclusive: 7.08 µM [activator, partial curve] | 
26 | CCn1c(C(=O)NCCc2ccc(S(N)(=O)=O)cc2)cc2sc(Cl)cc21 | inactive | 
27 | NS(=O)(=O)c1cccc(NC(=O)/C=C/c2cccs2)c1 | inconclusive: 25.1 µM [activator, single point] | 
28 | CC(=O)N/C(=C\c1ccccc1)C(=O)OCC(=O)N(C)C1CCCCC1 | inactive | 
29 | O=C1Cc2cc(S(=O)(=O)N3CCN(c4cccc(Cl)c4)CC3)ccc2N1 | inconclusive: 15.8 µM [activator, single point] | 
30 | COC(=O)c1ccc2nc(NC(=O)COC(=O)CSc3nc(C)cc(C)n3)sc2c1 | inconclusive: 7.08 µM [activator, full curve, poor fit] | 
31 | Cc1ccc(C(=O)CSc2nnc(C)s2)cc1 |  | inconclusive: 31.6% [activator]
32 | COc1ccc2[nH]c3c(c2c1)CCN(C(=O)CCC1CCCC1)C3c1ccc(F)cc1 (configuration not stated) | inconclusive: 20 µM [activator, single point] | 
33 | c1ccc(CNc2ccc3ccccc3n2)nc1 | inconclusive: 2.24 µM [activator, full curve, poor fit] | 
34 | CCc1ccc(C(=O)CN2C(=O)NC(C)(CCc3ccccc3)C2=O)cc1 (configuration not stated) | inactive | 
35 | COCCn1c(SCC#N)nnc1-c1ccccc1O | inconclusive: 0.251 µM [activator, full curve, poor fit] | 
36 | CN(C)c1ccc(/C=N/NC(=O)COc2ccccc2)cc1 | inactive | 
37 | O=C(COc1cccnc1[N+](=O)[O-])Nc1ccc2c(c1)OC(F)(F)O2 | inactive | 
38 | CCCCCC(=O)Nc1ccc(N2CCN(C(=O)c3ccccc3)CC2)cc1 | inconclusive: 14.1 µM [activator, single point] | 
39 | CC(C)NC(=S)N1CCN(S(=O)(=O)c2cccc(C(F)(F)F)c2)CC1 | inconclusive: 1 µM [activator, partial curve] | 
40 | COc1ccc(-c2nc3cc(NC(=S)NC(=O)Cc4ccccc4)ccc3o2)cc1 |  | inactive: 13.9% [at 1.84 µM]
41 | CCOc1ccc2nc(NC(=O)c3nc(SCc4ccccc4F)ncc3Cl)sc2c1 | inactive | 
42 | Cc1cccc(CSc2nnc(-c3cccs3)n2Cc2ccco2)c1 | inactive | 
43 | COc1ccc2cc(-c3nc4ccccc4n3C)c(=O)oc2c1 | active: 12.6 µM | 
44 | Cc1csc2ncc(C(=O)Nc3ccc4c(c3)OCCO4)c(=O)n12 | active: 4.47 µM | 
45 | Cc1cc(=O)[nH]c(N/N=C/c2c(C)nn(-c3ccccc3Cl)c2Cl)n1 | inconclusive: 35.5 µM [activator, single point] | 
46 | Cc1ccccc1Cn1ccc(NC(=O)CCSc2nc(-c3ccco3)cc(C(F)(F)F)n2)n1 | inconclusive: 1 µM [activator, partial curve, poor fit] | 
47 | CCc1nnc(NC(=O)CSc2ccc(-c3ccccc3OC)nn2)s1 | inactive | 
48 | Cc1ccc(N=Nc2c(O)ccc3cc(S(=O)(=O)O)ccc23)cc1 |  | inactive: -5.51% [at 9.22 µM]

Row | Compound | Potency | activity change, positive = activation
49 | CCCCc1ccc(Nc2ncccc2C#N)cc1 | inconclusive: 0.0562 µM [activator, full curve, poor fit] | 
50 | CC(=O)c1c(C)[nH]c(C(=O)Nc2ccc3c(c2)OCCO3)c1C | active: 5.62 µM | 
51 | CCN(CC)C(=O)Oc1ccc(NC(C)=O)cc1 | inconclusive: 0.447 µM [activator, partial curve, poor fit] | 
52 | Cc1ccc(C(=O)Nc2ccc3c(c2)OCO3)o1 | active: 11.2 µM | 
53 | COc1ccc2c(c1)c1nc3n(c(=O)c1n2CC(=O)Nc1cc(C)[nH]n1)CCS3 | inconclusive: 28.2 µM [activator, single point] | 
54 | O=C(COC(=O)c1ccco1)NCc1ccccc1Cl | inactive | 
55 | CCOC(=O)c1ccc(CSc2nnc(N)s2)cc1 | inconclusive: 0.0028 µM [activator, full curve, poor fit] | 
56 | COc1cccc(NC(=O)NC2(C(F)(F)F)Oc3ccccc3O2)c1 | inconclusive: 12.6 µM [activator, single point] | 
57 | COc1ccc(-c2csc(Nc3ncccc3C)n2)cc1OC | inconclusive: 7.08 µM [activator, full curve] | 
58 | Cc1c(C(=O)N/N=C/c2ccc(O)c(Br)c2)sc(N)c1C#N | inconclusive: 10 µM [activator, partial curve, poor fit] | 
59 | Cc1ccc(N/N=C2\COC(C)(C)CC2=O)cc1 | active: 11.2 µM | 
60 | O=C(c1cccc(F)c1)N1CCc2ccccc2C1 | inconclusive: 2.82 µM [activator, partial curve, poor fit] | 
61 | COc1ccc(NC(=O)c2ccco2)cc1NC(=O)COc1ccc(C)c(C)c1 | inconclusive: 3.16 µM [activator, partial curve] | 
62 | O=C(/C=C1\SC(=O)N(CC(=O)Nc2ccc(F)cc2)C1=O)Nc1ccc(Cl)cc1 | inconclusive: 14.1 µM [activator, partial curve] | 
63 | Cc1cc(C(=O)Nc2sc3c(c2C#N)CCC3)no1 | inconclusive: 20 µM [activator, partial curve, poor fit] | 
64 | O=C(NCCc1ccccc1)c1ccc2c(c1)N(Cc1ccc(Cl)cc1)C(=O)CS2 | inactive | 
65 | COc1ccccc1NC(=O)c1ccccc1SC | inconclusive: 5.01 µM [activator, single point] | 
66 | COc1ccc(-c2cc(N3C(=O)Nc4ccccc4N3O)n[nH]2)cc1 | inconclusive: 0.141 µM [activator, full curve, poor fit] | 
67 | Cc1occc1-c1nnc(SCC(=O)c2ccc(F)cc2)o1 | inconclusive: 0.0071 µM [activator, full curve] | 
68 | CC1CCN(C(=O)c2cc(-c3ccccc3O)on2)CC1 | inconclusive: 25.1 µM [activator, single point] | 
69 | Clc1ccc(-c2nc(C3CCCCC3)no2)cc1 | inconclusive: 11.2 µM [activator, partial curve] | 
70 | On1nnc2cc(C(F)(F)F)ccc21 | inactive | 
71 | Cc1nn(Cc2ccc(Cl)cc2Cl)c(C)c1NC(=O)CCl | inactive | 
72 | COc1ccc(NC(=O)Nc2ccc3nccnc3c2)cc1 | inconclusive: 17.8 µM [activator, single point] | 
